About 1,700 (3.3%) of roughly 52,000 compounds were called active. Rule as the data show it: active = survival mostly below about 52% (no sharp cut-off); inactive = mostly above about 56%. The list shows a part of the results.
System: Wild type
Assay: growth inhibition of S. aureus wild type versus tarO mutant, primary screen, teichoic acid synthesis inhibitors, RN4220, OD600 (AID 463173)
Details: S. aureus RN4220 wild type/DeltatarO growth, OD600, 18 h, hits give low values, screened at 18.75 µg/mL (by protocol)

| SMILES | survival |
| --- | --- |
| O=C(Nc1ccc2c(c1)N(C1CCCC1)C(=O)c1ccccc1S2)c1ccccc1F | inactive: 98% |
| COc1cccc(-n2c(CNC(=O)OC(C)(C)C)n[nH]c2=S)c1 | inactive: 110% |
| COc1ccc(-c2cn3cccnc3n2)cc1NC(=O)Nc1ccc(Cl)cc1 | inactive: 82% |
| COc1ccc2nc(C)cc(SCC(=O)O)c2c1 | inactive: 98% |
| Cc1cccc(OCc2nnc(SCC(=O)N3c4ccccc4CCc4ccccc43)o2)c1 | inactive: 129% |
| O=C(NCC1CCCO1)c1c[nH]c2ccccc2c1=O (configuration not stated) | inactive: 106% |
| O=C(Nc1ccc(S(=O)(=O)Nc2ncccn2)cc1)c1cc(=O)c2ccccc2o1 | inactive: 87% |
| Cc1ccc(C(=O)c2oc3ccccc3c2NC(=O)COc2ccc(C(C)C)cc2)cc1 | inactive: 69% |
| CCn1c(SCC(=O)N(C)C)nnc1-c1ccccc1 | inactive: 100% |
| CCOc1ccc(NC(=O)c2cc(OC)nc3ccccc23)cc1 | inactive: 107% |
| O=C1CCCC/C1=N\Nc1ccc(CN2CCCCC2)cc1 | inactive: 117% |
| O=C(CC1C(=O)N(c2ccccc2)C(=O)N1Cc1ccc(F)cc1)Nc1cccc(F)c1 (configuration not stated) | inactive: 74% |
| CCOC(=O)Nc1ccc(C(=O)OC)cc1 | inactive: 98% |
| O=C(Nc1cccc(C(=O)N2CCOCC2)c1)NC1CCCCC1 | inactive: 89% |
| CCOc1ccc(NC(=O)c2ccc3c(c2)CCN3S(=O)(=O)CC)cc1 | inactive: 93% |
| CCN(CC)C(=O)Cn1c(=O)cc(C)c2c(C)nn(-c3ccc(C)cc3)c21 | inactive: 74% |
| COc1ccc(-c2cc(-c3ccccc3)nc3c2COc2ccc(F)cc2-3)cc1 | inactive: 80% |
| CC(C)c1nn2c(=O)cc(COC(=O)c3ccc(NC(=O)C4CCCCC4)cc3)nc2s1 | inactive: 68% |
| Cc1ccc(CSc2ncc(Cl)c(C(=O)NCc3ccccc3)n2)cc1 | inactive: 94% |

| SMILES | survival |
| --- | --- |
| COc1cc2cc(C(=O)Nc3ccccc3)c(N)nc2cc1OC | inactive: 113% |
| Cc1ccc(S(=O)(=O)N2CCCc3cc(NS(=O)(=O)c4cc(C)ccc4C)ccc32)cc1 | inactive: 77% |
| COc1ccc2[nH]c3c(c2c1)CCN(C(=O)c1cccc(Cl)c1)C3c1ccc(F)cc1 (configuration not stated) | inactive: 79% |
| CCOC(=O)c1cc(-c2ccc(F)cc2)n(CC(=O)NC2CCCCCC2)c1C | inactive: 71% |
| CC1(C)CC(=O)C=C(NCCc2ccccc2)C1 | inactive: 126% |
| Cc1nc2sccn2c(=O)c1S(=O)(=O)Nc1cc(Cl)ccc1O | inactive: 82% |
| CCCCN1CCc2nc(Nc3ccc(OC)cc3OC)ncc2C1 | inactive: 73% |
| Cc1ccc(CN(Cc2ccco2)C(=O)c2ccc(OCC(C)C)cc2)cc1 | inactive: 90% |
| COc1ccc(NC(=O)c2c(NC(=O)COc3ccccc3)sc3c2CCC(C(C)(C)C)C3)cc1 (configuration not stated) | inactive: 77% |
| C/C(=N/OC(=O)CSc1nc(-c2ccco2)cc(C(F)(F)F)n1)c1ccccc1 | inactive: 88% |
| Cc1ccc2c(c1)N(C(=O)N1CCC(C(=O)NCCc3ccc(Cl)cc3)CC1)CC(C)O2 (configuration not stated) | inactive: 87% |
| Cc1ccc(C)c(N2CCN(C(=O)c3cc4c(=O)n(Cc5ccccc5)ccc4nc3C)CC2)c1 | inactive: 85% |
| CCOc1cccc2c1N[C@@H](c1ccc(C(=O)O)cc1)[C@H]1CC=C[C@@H]21 | inactive: 78% |
| Cc1cccc(NS(=O)(=O)c2ccc3[nH]c4c(c3c2)CCCCCC4)c1 | inactive: 64% |
| Cc1ccc(-n2nc(C)c3c(C)c(CCC(=O)NCc4ccccc4Cl)c(C)nc32)cc1C | inactive: 82% |
| COc1ccc(NC(=O)C(Cc2ccccc2)NS(=O)(=O)c2ccc3c(c2)CCC(=O)N3)c(OC)c1 (configuration not stated) | inactive: 101% |
| CCc1ccc(NC(=O)CN2C(=O)C(c3ccc(C)cc3)=NC23CCCCC3)cc1 | inactive: 77% |
| Cc1cccc(Cn2cccc2CNS(=O)(=O)c2ccccc2F)c1 | active: -4% |
| CCc1ccc(CNC(=O)Cn2nc(C)n3c(cc4cc(C)ccc43)c2=O)cc1 | inactive: 81% |

| SMILES | survival |
| --- | --- |
| CCOC(=O)c1cccc(NC(=O)c2cc3ccccn3n2)c1 | inactive: 135% |
| Cc1nonc1OCCNC(=O)C12CC3CC(CC(C3)C1)C2 | inactive: 109% |
| O=C(Cn1c(=O)n(CC2CCC(C(=O)NCCc3ccccc3)CC2)c(=O)c2ccccc21)Nc1ccccc1 (configuration not stated) | inactive: 136% |
| COc1ccc2sc(N(Cc3cccnc3)C(=O)C3CCCCC3)nc2c1 | inactive: 81% |
| CCCCOc1ccc(C2=NC(c3ccncc3)=Nc3ccc(OCC)cc3N2)cc1 | inactive: 90% |
| CCOc1ccccc1CNC(=O)C1CCN(c2nnc(-n3c(C)ccc3C)s2)CC1 | inactive: 85% |
| Cc1cc(C)n2nc(CNS(=O)(=O)c3ccc(C)c(C)c3)nc2n1 | inactive: 84% |
| CC(C)OCCCn1c(SCC(=O)c2ccccc2)nc2c(sc3ccccc32)c1=O | inactive: 72% |
| Cc1nn(-c2ccc(F)cc2)c(-n2cccc2)c1C(=O)NCCc1ccc(Cl)cc1 | inactive: 54% |
| CCN(CC)CCOC(=O)c1ccc(NC(=O)Cn2ncc3c2-c2cc(C)ccc2OC3)cc1 | inactive: 72% |
| O=C(C1CCN(S(=O)(=O)c2cccc3nonc23)CC1)N1CCN(c2cccc(Cl)c2)CC1 | inactive: 56% |
| COc1ccc(NC(=O)CSc2nc3nc(C)c(Cc4ccccc4)c(C)n3n2)cc1OC | inactive: 60% |
| Cc1ccc(Cn2c(=O)c3ccccc3n3c(-c4cccc(O)c4)nnc23)cc1 | inactive: 92% |
| CCOc1ccc(C2CC(c3c(O)n(C4CCCCC4)c(=O)[nH]c3=O)=Nc3ccccc3S2)cc1 (configuration not stated) | inactive: 83% |
| O=C(Nc1sc2c(c1C(=O)NCc1cccnc1)CCCC2)c1cc(=O)c2ccccc2o1 | inactive: 90% |
| Cc1ccc2nc(COc3ccccc3NC(=O)C(C)(C)C)cc(=O)n2c1 | inactive: 66% |
| COc1cccc(CNC(=O)c2ccc(-c3nc(COc4ccccc4)c(C)o3)cc2)c1 | inactive: 80% |
| Cc1ccc(CCNC(=O)c2cc3c(s2)-c2c(C)cccc2OC3)cc1 | inactive: 88% |
| CCOC(=O)N1CCc2c(sc3c2c(=O)n(-c2ccccc2C(F)(F)F)c(=O)n3Cc2ccccc2C)C1 | inactive: 121% |

Reference: PubChem BioAssay AID463173 (ICCB-Longwood Screening Facility, Harvard Medical School, 2010)
